In PubChem BioAssay AID1345082 (National Center for Advancing Translational Sciences (NCATS), 2018):
Hit rate of the full screen: of about 94,000 compounds, about 4,000 (4.3%) were called active. The shares of active, inactive and inconclusive entries below differ from those in the screen. The call rests on the fitted dose curve; in most records, active means well fitted inhibition curve with a large enough effect; inconclusive means small, poorly fitted or top-dose-only effect; inactive means no such curve, though single readings can be large or run the other way. Potencies beside an inconclusive call are fits to weak or partial responses and may not hold up.

Test: Cytotoxic Profiling in NIH 3T3 Cell Line of Diverse Libraries Using Quantitative High-Throughput Screening; further: nearly all actives have a fitted effect of over 55% in size
Conditions: NIH 3T3 viability, CellTiter-Glo ATP luminescence, 48-72 h; series mostly up to 96.7 µM
How it was run: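 Cytotoxicity was measured by CellTiter-Glo ATP luminescence after 48 or 72 h compound exposure at 37 °C. Mouse NIH 3T3 fibroblasts were seeded at 400 cells/well and dosed by 23 nL pin transfer.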
Potency means the concentration at half of the fitted maximal effect; tags describe the fitted curve by direction and shape.

SMILES | Potency
COc1cccc(CN2CCCn3nc(C)c(-c4ccccc4[S+](C)(=O)[O-])c32)c1 | inconclusive: 89.1 µM [inhibitor, partial curve, poor fit]
Cc1cccc(CNC(=O)c2ccc3c(c2)N(C)C2CCCCCN2C3=O)c1 (stereo unspecified) | inactive
Cc1noc(C)c1CN1C[C@@H]2[C@H](C1)N(CCOc1ccccc1)C(=O)C(C)(C)[S+]2(=O)[O-] | active: 15.8 µM
O=C(Nc1ccc2ncnc(N3CCCCC3)c2c1)c1cncc(Br)c1 | inactive
C#CCNC(=O)c1nc(-c2ccc(Cl)nc2)c2ccccn12 | inconclusive: 44.7 µM [inhibitor, partial curve, poor fit]
COc1ccc(C2Cn3nnc(C(=O)N4CCN(C(=O)c5ccc(C)cc5C)CC4)c3CO2)cc1 (stereo unspecified) | inconclusive: 56.2 µM [inhibitor, partial curve, poor fit]
COc1cc(Cl)ccc1C(=O)N1CCC(Cc2nc(C(C)C)no2)CC1 | inconclusive: 22.4 µM [inhibitor, full curve]
OC1(c2csc(CN3CCc4ccccc4C3)n2)CCNCC1 | inconclusive: 126 µM [inhibitor, partial curve, poor fit]
CCc1cnc(N2CCC(COc3ccc4c(cnn4CC[S+](C)(=O)[O-])c3)CC2)nc1 | inactive
O=C(CCc1ccccc1)Nc1cccc(-c2nnc3n2CCCC3)c1 | inactive
CCCc1cc(N2CCC(N3CC(Oc4ccccc4F)C3)CC2)nc(C)n1 | inconclusive: 35.5 µM [inhibitor, full curve, poor fit]
O=C1CCN(CC(O)C(F)(F)F)c2ccc(F)cc2CN1Cc1ccco1 (stereo unspecified) | inconclusive: 50.1 µM [inhibitor, partial curve, poor fit]
O=C(NCC1CC1)c1cccc(OC2CN(Cc3cc(F)c(F)c(F)c3)C2)c1 | inconclusive: 44.7 µM [inhibitor, partial curve, poor fit]
COc1cccc(C(=O)NCCn2ccn3nc(-c4ccc(C)cc4C)cc3c2=O)c1OC | inconclusive: 50.1 µM [inhibitor, partial curve, poor fit]
CC(C)CCN1CCc2ncc(C(=O)NCc3ccccc3)n2CC1 | inconclusive: 28.2 µM [inhibitor, full curve, poor fit]
COc1ccc(-c2cc(C(=O)NCCCOC(C)C)c3cnn(C)c3n2)cc1 | inconclusive: 50.1 µM [inhibitor, partial curve, poor fit]
O=C(NCc1ccccc1)Nc1cnc2c(c1)CCC2 | inactive
COc1ccc(CN2CCCC3(Cc4ccccc4CNC3=O)C2)cc1 (stereo unspecified) | inconclusive: 56.2 µM [inhibitor, partial curve, poor fit]
Cc1ccc(-c2noc([C@@H]3CCCN3C(=O)c3ccc(C)nc3)n2)cc1 | inactive
CCO[C@H]1CN(C2CCN(c3ccc(C)c(Cl)c3)CC2)C[C@@H]1O | inconclusive: 50.1 µM [inhibitor, partial curve, poor fit]
CCN1c2cc(C(=O)Nc3ccc(Cl)c(C)c3)ccc2C(=O)N2CCCCC21 (stereo unspecified) | inconclusive: 17.8 µM [inhibitor, full curve]

SMILES | Potency
Cc1noc(C)c1[S+](=O)([O-])N1CCC2(CC1)OCCN(Cc1ccccc1)C2=O | inconclusive: 100 µM [inhibitor, partial curve]
COC1CCC12CCN(C(=O)c1ccsc1)CC2 (stereo unspecified) | inactive
CC(C)NC(=O)c1nc(-c2ccc(Cl)cc2Cl)c2ccccn12 | inconclusive: 70.8 µM [inhibitor, single point]
CCC[C@H](N)C(=O)N1CCC(c2cc(N3CCOCC3)nc(C)n2)CC1 | inconclusive: 89.1 µM [inhibitor, partial curve, poor fit]
C#CCNC(=O)c1cn2cc(-c3cccc(C(F)(F)F)c3)sc2n1 | inconclusive: 25.1 µM [inhibitor, partial curve]
Cc1ccc(NC(=O)CN2C(=O)NC(c3ccc(Cl)cc3)C3=C2COC3=O)c(C)c1 (stereo unspecified) | inconclusive: 44.7 µM [inhibitor, partial curve, poor fit]
O=C(NCCc1ccc(Cl)cc1)c1ccc2nnc(-c3cccc(C(F)(F)F)c3)n2c1 | active: 22.4 µM
CCN1c2cc(C(=O)NCc3cccs3)ccc2C(=O)N2CCCCCC21 (stereo unspecified) | inconclusive: 39.8 µM [inhibitor, partial curve, poor fit]
C[C@H]1[C@@H]2[C@@H](O)C([C@H](C)C(=O)NCc3ccccn3)CC[C@@]2(C)CC[C@@H]1NC(=O)C1CC1 (stereo partly specified) | inconclusive: 79.4 µM [inhibitor, partial curve, poor fit]
Clc1ccc(CN2CCOC[C@H](Oc3ccccc3)C2)cc1 | inactive
CSc1ccc(CNC(=O)c2noc(-c3ccc(F)cc3)n2)cc1 | inconclusive: 56.2 µM [inhibitor, partial curve, poor fit]
COCc1nnc(C2CC3(CCN(C(=O)c4ccc(OC)nc4)CC3)CN2C)o1 (stereo unspecified) | inactive
COCCn1c2c(c(=O)n1-c1ccccc1)CCN(C(=O)c1nc3ccccc3[nH]1)C2 | active: 89.1 µM
COCCN1Cc2ccc(NCC(C)C)nc2C(C)(C(=O)Nc2cccc(F)c2)C1 (stereo unspecified) | active: 25.1 µM
COc1ccc(-c2cc(N3CCN(C(=O)c4cccc(C)c4)CC3)n[nH]2)cc1 | inconclusive: 44.7 µM [inhibitor, partial curve, poor fit]
COc1ccc(CNC(=O)c2cc(-c3ccccc3F)nc3c2cnn3C)cc1 | inconclusive: 22.4 µM [inhibitor, full curve]
O=C1c2c(nc(COc3ccccc3)n2Cc2ccccc2)NCCN1Cc1ccccc1 | active: 31.6 µM
COC[C@H]1CCCN1C(=O)CC[C@H]1CNC(=O)[C@@H]2[C@@H](CCN2CC2CC2)N1C | inactive
N#Cc1ccc(CN2CCC23Cc2ccccc2NC3=O)cc1 (stereo unspecified) | inconclusive: 89.1 µM [inhibitor, partial curve]
COc1ccc(F)cc1CN1CCC(CO)(CN2CCCC2)CC1 | inconclusive: 89.1 µM [inhibitor, single point]
